Reference: PubChem BioAssay AID1159614 (National Center for Advancing Translational Sciences (NCATS), 2016)
Out of some 45,000 compounds screened, about 65 (0.1%) were called active. The call rests on the fitted dose curve; in most records, active means well fitted activation curve with a large enough effect; inconclusive means small, poorly fitted or top-dose-only effect; inactive means no such curve, though single readings can be large or run the other way. This is one part of the list.

Target: Galactocerebrosidase (Homo sapiens) (UniProt P54803)
Assay: A Novel Cell-Based Assay to Identify Small Molecules for B -Galactocerebrosidase; further: 0% is about no effect; nearly all actives have a fitted effect of over 65% in size
Settings: 145M-Twi-hGALC-G270D cells (Twitcher mouse brain line with human GALC G270D), HMU-beta-Gal fluorescence, 48 h; series mostly up to 57.5 µM; activation: at the top concentration
How it was run: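 Fluorogenic HMU-b-Gal hydrolysis (0.1 mM final, pH 5.2 citrate-phosphate with 1 mg/mL sodium taurocholate; carbonate stop buffer) measures mutant GALC activity after compound treatment of live 145M-Twi Twitcher brain cells stably carrying human GALC-G270D, with wild-type GALC line alongside; activation sought.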

Sequence of UniProt P54803 (P54803 whole entry, looked up): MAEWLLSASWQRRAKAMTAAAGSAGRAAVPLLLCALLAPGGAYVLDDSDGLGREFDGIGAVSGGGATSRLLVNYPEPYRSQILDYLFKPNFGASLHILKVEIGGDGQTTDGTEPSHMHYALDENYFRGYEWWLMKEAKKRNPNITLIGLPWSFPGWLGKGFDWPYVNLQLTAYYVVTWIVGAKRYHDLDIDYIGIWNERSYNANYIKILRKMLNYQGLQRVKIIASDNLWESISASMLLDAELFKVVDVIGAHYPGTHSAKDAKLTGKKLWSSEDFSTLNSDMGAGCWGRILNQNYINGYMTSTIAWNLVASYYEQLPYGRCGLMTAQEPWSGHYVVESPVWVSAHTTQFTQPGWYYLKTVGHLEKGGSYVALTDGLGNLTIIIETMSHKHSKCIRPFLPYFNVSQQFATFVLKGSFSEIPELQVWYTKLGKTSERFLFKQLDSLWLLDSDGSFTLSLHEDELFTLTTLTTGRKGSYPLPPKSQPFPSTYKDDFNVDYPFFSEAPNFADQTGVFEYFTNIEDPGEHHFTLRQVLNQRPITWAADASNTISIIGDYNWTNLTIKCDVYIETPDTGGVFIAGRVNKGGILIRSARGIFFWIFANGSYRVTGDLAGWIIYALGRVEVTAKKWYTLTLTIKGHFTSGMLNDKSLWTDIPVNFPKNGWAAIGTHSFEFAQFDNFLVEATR

| Structure (SMILES) | activation |
| --- | --- |
| CC1CCC(NC(=O)c2ccc(CS(=O)(=O)c3cccc(C(F)(F)F)c3)o2)CC1 (configuration not stated) | inactive: -6% |
| O=C(NCc1cccs1)c1ccc(CSc2nc3ccncc3n2Cc2ccccc2)cc1 | inactive: -3.31% |
| Cc1ccc(C)c(Cn2c(=O)n(Cc3ccccc3)c(=O)c3c2c2cc(C)ccc2n3C)c1 | inactive: -15.7% |
| CCOc1ccc(S(=O)(=O)NCCc2csc3nc(-c4ccc(F)cc4)nn23)cc1 | inactive: -1.15% |
| COc1cccc(C2=NS(=O)(=O)N(C)C(C(=O)Nc3ccccc3SC)=C2)c1 | inactive: -9.93% |
| COc1cc(NC(=O)CNS(=O)(=O)c2cccs2)cc(OC)c1OC | inactive: -16% |
| COc1ccc(-c2cc(C(=O)Nc3cccc(O)c3)on2)cc1OC | inactive: -10.7% |
| Fc1ccc(CSc2nc(NCc3ccccc3)c3ccccc3n2)cc1 | inactive: -9.43% |
| COc1ccc(CNC(=O)Cn2c(=O)cc(C)c3c(C)nn(-c4cccc(Cl)c4C)c32)cc1 | inactive: -15.6% |
| CCOC(=O)c1ccc(NC(=O)Cn2c(=O)cc(C(F)(F)F)c3c(C)nn(C)c32)cc1 | inactive: 4.21% |
| Cc1ccc(C(=O)Nc2ccc(S(=O)(=O)Nc3onc(C)c3C)cc2)cc1 | inactive: 1.51% |
| Cc1ccc(Cl)cc1N1CCN(CCCNC(=O)C2COc3ccccc3C2)CC1 (configuration not stated) | inactive: 2.7% |
| Cn1c(=O)[nH]c2cc(-c3noc(-c4ccc(Br)cc4)n3)ccc21 | inactive: -1.45% |
| Cc1cccc(-c2nn3c(=O)cc(CN4CCN(C(=O)/C=C/c5ccccc5)CC4)nc3s2)c1 | inactive: -1.68% |
| COc1ccccc1Nc1nc(-c2ccccc2F)nc2ccccc12 | inactive: -49.8% |
| CCC(C)c1ccc2oc(-c3ccc(NC(=O)c4cc5ccccc5o4)cc3)nc2c1 (configuration not stated) | inactive: -14.4% |
| Cc1cccc(Cn2c(=O)n3nc(-c4ccccc4)nc3c3ccccc32)c1 | inactive: -11.3% |
| CC(C)c1ccc(S(=O)(=O)c2nnn3c2nc(N2CCCC2)c2sccc23)cc1 | inactive: 1.18% |
| CCCC(=O)Nc1nnc(S(=O)(=O)N(C)Cc2ccc(Cl)cc2)s1 | inactive: 4.99% |
| COc1cc2c(C(=O)Nc3cc(OC)c(OC)c(OC)c3)cn(C)c(=O)c2cc1OC | inactive: 0.258% |
| Cc1ccc(NC(=O)CSc2nnc3ccc4ccccc4n23)cc1 | inactive: 21.8% |

| Structure (SMILES) | activation |
| --- | --- |
| O=C(NCCN1CCN(c2cccc(Cl)c2)CC1)Nc1ccccc1 | inactive: -3.31% |
| CCc1ccc(NC(=O)c2ccc(-c3ccccc3)s2)cc1 | inactive: -3.44% |
| O=C(CC1N=C2c3ccccc3N=C(SCc3ccc(F)cc3)N2C1=O)NCc1ccc2c(c1)OCO2 (configuration not stated) | inactive: -9.6% |
| Cc1cccc(NC(=O)c2ccc(-c3ccccc3)s2)c1 | inactive: -27.7% |
| CCC(Oc1ccccc1)C(=O)Nc1nnc(S(=O)(=O)N(CC)CC)s1 (configuration not stated) | inactive: -13.5% |
| CCc1cnc2c(c1SCC(=O)NCc1ccccc1Cl)c(=O)n(C)c(=O)n2C | inactive: -14.3% |
| CCc1ccc(NC(=O)c2cnn(-c3ccccc3)c2-n2cccc2)cc1 | inactive: -12% |
| Cc1cccc(C(=O)NCC(c2ccco2)S(=O)(=O)c2cccs2)c1 (configuration not stated) | inactive: -19.3% |
| CCOC(=O)C1CCN(c2ncnc3c2nc2n3CCCCC2)CC1 | inactive: -3.82% |
| CN(C(=O)CSc1nnc(NC(=O)Nc2ccccc2)s1)c1ccccc1 | inactive: -8.11% |
| Cc1cc(C)c(NC(=O)C2CCN(c3nc4ccccc4n4cccc34)CC2)c(C)c1 | inactive: -15.2% |
| COc1cc2ccccc2cc1C(=O)Nc1cccc(-c2nc3cc(C)c(C)cc3o2)c1 | inactive: -9.64% |
| COC(=O)c1c(NC(=O)c2ccc(S(=O)(=O)N3CCC(C)CC3)cc2)sc2c1CCN(C)C2 | inactive: -2.23% |
| O=C(NCC(c1cccnc1)N1CCc2ccccc21)c1cccc(Br)c1 (configuration not stated) | inactive: -5.82% |
| COc1ccc(-n2ncc(C(=O)NCc3ccco3)c2C2CCN(C(=O)OC(C)(C)C)CC2)cc1 | inactive: -9.43% |
| CC(C)NC(=O)C1CCC(Cn2c(=O)c3sccc3n(Cc3ccc(F)cc3)c2=O)CC1 (configuration not stated) | inactive: -12.9% |
| Brc1cccc(-c2nnn3c2nc(NCc2ccc4c(c2)OCO4)c2ccccc23)c1 | inactive: -2.76% |
| CCCC(=O)N(c1ccc2oc(C)c(C(C)=O)c2c1)S(=O)(=O)c1ccc(CC)cc1 | inactive: -32.5% |
| NCCNCCNCCNCCN | inactive: -4.05% [at 11.5 µM] |
| COc1ccc(N2CCN(c3ncnc4c3cnn4C)CC2)cc1 | inactive: -6.71% |
| CCOc1cccc(NC(=O)C2CC(=O)N(CC)C(=Nc3ccc(F)cc3)S2)c1 (configuration not stated) | inactive: -14% |

| Structure (SMILES) | activation |
| --- | --- |
| O=C1CS(=O)(=O)C2(C(=O)N(Cc3ccccc3Cl)c3ccccc32)N1c1ccc(F)cc1 (configuration not stated) | inactive: -26.8% |
| COc1ccc(Cn2c(C(=O)O)c(CNCCc3ccco3)c3ccc(OC)cc32)cc1 | inactive: -14.8% |
| Cc1ccc(NC(=O)/C(C#N)=C/c2ccc(-c3ccc(Cl)c(C(=O)O)c3)o2)cc1C | inactive: -19% |
| CCCNC(=O)Cn1c(=O)n(CC2CCC(C(=O)NC)CC2)c(=O)c2sccc21 (configuration not stated) | inactive: -12.4% |
| CCN(CC)S(=O)(=O)c1ccc2c(c1)N(CC(=O)Nc1ccccc1F)C(=O)C1CCCN21 (configuration not stated) | inactive: -11.7% |
| CC(C)(C)c1ccc(/C=C/C(=O)Nc2ccc(S(N)(=O)=O)cc2)cc1 | inactive: -22.3% |
| COc1cccc(NC(=O)C2CCCN(S(=O)(=O)c3cn(C(C)C)cn3)C2)c1 (configuration not stated) | inactive: -10.7% |
| CCOc1ccc(CCNC(=O)c2cc3cccc4c3n2CCS4)cc1 | inactive: -4.96% |
| COC(=O)c1c(-c2ccc(Cl)cc2)noc1N1CCN(c2cc(C)ccc2C)CC1 | inactive: -8.53% |
| COCCCNC(=O)c1cc2cc(S(=O)(=O)N3CCCCC3)ccc2n1C | inactive: -1.87% |
| CCC(C)(C)NC(=O)C1CCN(S(=O)(=O)c2ccc3c(c2)CCCN3C(C)=O)CC1 | inactive: -18.3% |
| Cc1cc(C)c(NC(=O)CSc2ncc3c(n2)-c2cc(Cl)ccc2N(C)S3(=O)=O)c(C)c1 | inactive: -13.1% |
| C=Cc1ccc(Cn2c(C(=O)O)c(CNCc3ccc(F)cc3)c3ccc(C)cc32)cc1 | inactive: -2.23% |
| Cc1cccc(C(=O)Nc2ccc(S(=O)(=O)N3CCC(c4nc5ccccc5s4)CC3)cc2)c1 | inactive: -2.87% |
| COc1ccc(NC(=O)C2=CC(c3ccco3)=NS(=O)(=O)N2C)cc1 | inactive: -14.1% |
| Cc1ccccc1S(=O)(=O)Cc1ccc(C(=O)N2CCN(c3cccc(Cl)c3)CC2)o1 | inactive: -29.7% |
| Cc1cc(SCC(=O)NCc2ccc(Cl)cc2)nc(=O)[nH]1 | inactive: 5.89% |
| CCCCCn1c(=O)[nH]c2cc(C(=O)Nc3ccc(F)c(F)c3)ccc2c1=O | inactive: -16.4% |
| N#Cc1ccc(-c2cccs2)nc1SCC(=O)Nc1cccc(C(F)(F)F)c1 | inactive: -10.3% |
| Cc1cccc(NC(=O)c2cc(S(=O)(=O)NCCc3ccccc3)ccc2F)c1C | inactive: -6.45% |
